The assay relates to gp46. In words: pHSC in vitro assay: gp46/HSP47 mRNA knockdown by siRNA formulations, qRT-PCR. To be noted: read-out: in vitro (pHSC) EC50; 20:20 HEDC:S104 liposome with 2% retinoid conjugate; HSP47 KD at six half-log doses of siRNA. (In general: Quantitative PCR measures a nucleic acid by following its amplification.)

pIC50: −log10 of the molar value.

Turning to “N1,N19-bis((16S)-16-(3,7-dimethyl-9-(2,6,6-trimethylcyclohex-1-en-1-yl)nonanamido)-24,28-dimethyl-15,22-dioxo-30-(2,6,6-trimethylcyclohex-1-en-1-yl)-4,7,10-trioxa-14,21-diazatriacontyl)-4,7,10,13,16-pentaoxanonadecane-1,19-diamide [satDiVA]”, the pIC50 was 7.85.

For the origin of these results see EP2998289B1, “COMPOUNDS FOR TARGETING DRUG DELIVERY AND ENHANCING SIRNA ACTIVITY” (NITTO DENKO CORPORATION, priority 2011, dated 2012).
